“And” between values parts separate entries of the source, which are not always exact repeats. Identical values can stand only once. The shares of active, inactive and inconclusive entries below differ from those in the screen. Potencies of inconclusive entries are doubtful fits and often do not repeat. The source made the active and inactive calls. Calls come from the whole dose curve; as a rule, active = well fitted inhibition curve with a large enough effect; inconclusive = small, poorly fitted or top-dose-only effect; inactive = no such curve, though single readings can be large or run the other way.
Assay: Primary qHTS for small molecule stabilizers of the endoplasmic reticulum resident proteome: Secreted ER Calcium Modulated Protein (SERCaMP) assay (AID 1508630)
Conditions: SH-SY5Y GLuc-SERCaMP (Gaussia luciferase released on ER calcium loss) secretion, thapsigargin, luminescence; activity change, negative = inhibition: at 38.4 µM (top of the series)
Summary of the method: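 GLuc-SERCaMP-expressing SH-SY5Y cells, pretreated 16 h with compound, are challenged with thapsigargin to empty ER calcium stores; after 4 h, coelenterazine is added directly to the medium and luminescence is imaged.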
% is set by controls: 0 for no effect and ±100 for the full control effect; potency is the fitted concentration of half-maximal effect; tags give direction and shape of the fitted curve.

Row | SMILES | activity change, negative = inhibition | Potency
1 | COc1ccccc1N1CCN(CCN(C(=O)C2CCCCC2)c2ccccn2)CC1 | inactive: 0% | –
2 | CNS(=O)(=O)Cc1ccc2[nH]cc(CCN(C)C)c2c1 | – | inactive
3 | Cc1cccc(-c2[nH]c(C(C)(C)C)nc2-c2ccc3nccnc3c2)n1 | – | inconclusive: 28.2 µM [inhibitor, single point]
4 | O=c1cc(-c2cccc3c2Sc2ccccc2S3)oc(N2CCOCC2)c1 | inactive: 0% | –
5 | CN[C@@H](C)[C@H]1[C@H](O)C[C@@]2(C)[C@@H]3CC[C@H]4C(C)(C)[C@@H](NC)CC[C@@]45C[C@@]35CC[C@]12C | inactive: 2.7% | –
6 | O=C1c2c(O)cc(O)cc2OC(c2ccc(O)c(O)c2)C1O (configuration not stated) | – | inconclusive: 2.37 µM [inhibitor, full curve] and inconclusive: 3.55 µM [inhibitor, full curve, poor fit]
7 | COc1c(O)cc2c(c1O)[C@@H]1O[C@H](CO)[C@@H](O)[C@H](O)[C@H]1OC2=O | – | inconclusive: 0.0094 µM [inhibitor, full curve, poor fit]

Source: PubChem BioAssay (NCATS)
